# Test results reported in patent US20250382384A1 (BEONE MEDICINES I, published 2025).
# Key:
# HMFG1 [1] = assay: competitive FACS: soluble MUC1 titrated against 0.3 µg/ml antibody binding to human MUC1 expressing cells
# HMFG1 [2] = assay: as above; remark: listed apart in the source
# HMFG1 [3] = assay: competitive FACS: soluble MUC1 titrated against 3 µg/ml antibody binding to human MUC1 expressing cells
# Sequence of HMFG1 (VH, as listed by the source, chain 1 of 2): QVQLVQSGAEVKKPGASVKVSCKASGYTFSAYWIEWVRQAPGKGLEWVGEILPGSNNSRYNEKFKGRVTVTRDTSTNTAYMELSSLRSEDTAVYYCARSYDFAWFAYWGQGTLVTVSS
# Sequence of HMFG1 (VL, as listed by the source, chain 2 of 2): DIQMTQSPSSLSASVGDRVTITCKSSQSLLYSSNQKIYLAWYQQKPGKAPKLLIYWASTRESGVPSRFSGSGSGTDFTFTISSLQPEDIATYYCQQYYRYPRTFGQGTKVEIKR
binder,measurement,setting,value
soluble MUC1 (Shanghai Linc-Bio Science Co. LTD) (other) not shown,IC50 (read off the curve),HMFG1 [1],~5 U/mL
same,IC50 (read off the curve),HMFG1 [2],~5 U/mL
same,IC50 (read off the curve),HMFG1 [3],~30 U/mL
